The assay has as its system OVCAR8. In words: cell count relative to DMSO vehicle (fold change); OVCAR8 is a high-grade serous ovarian cancer line and CX-5461 an RNA polymerase I inhibitor; higher = more surviving senescent cells (less killing). The note with it: senescence inducer: CX-5461 3 µM 48 h, then 6 d recovery (CX senescent), exposure time 24 h.

The structures appear in SMILES notation. Where a name gives a salt, the structure may show the parent alone. ± gives the standard deviation of the averaged measurements. The list shows a part of the results.

As to `O=c1ccc2ccc(O)cc2o1`, the cell count was found to be 1.05 ± 0.025 (compound dose 1 µM) and 1.11 ± 0.029 (compound dose 5 µM).
The matching figures for `COc1ccc([C@@H]2CC(=O)c3c(O)cc(O[C@@H]4O[C@H](CO[C@@H]5O[C@@H](C)[C@H](O)[C@@H](O)[C@H]5O)[C@@H](O)[C@H](O)[C@H]4O)cc3O2)cc1O` [Hesperidin]: 1.05 ± 0.2 and 1.03 ± 0.15.
Molecule `CC(C)(C)S(=O)(=O)c1cc2c(Nc3ccc4scnc4c3)ncnc2cc1OCCO` gave a cell count (compound dose 1 µM) of 1.1 ± 0.25 and a cell count (compound dose 5 µM) of 1.06 ± 0.094.
The matching figures for `Cc1cc(OCCCc2c3n(c4c(-c5c(C)nn(C)c5C)c(Cl)ccc24)[C@H](C)CN(c2cn(C)c4ccc(C(=O)O)cc24)C3=O)cc(C)c1Cl`: 1.01 ± 0.13 and 1.24 ± 0.18.
The matching figures for `CC(C(=O)O)c1ccc2c(c1)Cc1cccnc1O2` (stereo not given): 0.895 ± 0.089 and 0.993 ± 0.12.
The matching figures for `Clc1ccc(NN=C(c2ccccc2)c2ccccn2)nc1`: 1.15 ± 0.12 and 1.35 ± 0.052.
Take `CN[C@H](C(=O)N[C@H](C(=O)N(C)[C@H](/C=C(\C)C(=O)O)C(C)C)C(C)(C)C)C(C)(C)c1ccccc1` [Taltobulin]: the cell count (compound dose 1 µM) was found to be 0.904 ± 0.073 and the cell count (compound dose 5 µM) is 0.778 ± 0.011.
The matching figures for `COc1cc(O)c2c(c1)oc(=O)c1c3cc(O)c(O)cc3oc21` [Wedelolactone]: 0.984 ± 0.11 and 1.04 ± 0.075.
Taken in the same sequence, the figures for `COC(=O)C[C@H](NC(=O)[C@H](C)NC(=O)[C@@H](NC(=O)OCc1ccccc1)C(C)C)C(=O)CF` were 1.01 ± 0.17 and 1.04 ± 0.12.
`COc1ccc(-c2cc(=O)c3c(O)cc(O)c(-c4cc(-c5cc(=O)c6c(O)cc(O)cc6o5)ccc4OC)c3o2)cc1`: the cell count stood at 1.125 ± 0.0078 (compound dose 1 µM) and 1.06 ± 0.042 (compound dose 5 µM).
The matching figures for `Cc1c(C)c2c(c(C)c1O)CCC(C)(COc1ccc(CC3SC(=O)NC3=O)cc1)O2` (stereo not given) [Troglitazone]: 1.06 ± 0.1 and 1.11 ± 0.17.
The matching figures for `CCCCCCC[N+](CC)(CC)CCCCc1ccc(Cl)cc1` [Clofilium tosylate]: 1.21 ± 0.16 and 1.18 ± 0.24.
Taken in the same sequence, the figures for `C=C1C(=O)O[C@@H]2/C=C(\C)CC/C=C(\C)CC[C@@H]12` [Costunolide] were 1.07 ± 0.25 and 0.948 ± 0.14.
In the case of `Oc1ccc2c(c1)OCO2` [Sesamol], the cell count is 0.999 ± 0.076 (compound dose 1 µM) and 1.06 ± 0.076 (compound dose 5 µM).
Taken in the same sequence, the figures for `Nc1c[nH]c(=O)c2cc(-c3ccccc3)sc12` [Thienopyridone] were 1.16 ± 0.28 and 1.06 ± 0.14.
Taken in the same sequence, the figures for `COc1cc(C2CC(c3ccccc3)=NN2C(N)=S)cc(OC)c1OC` (stereo not given) were 1.16 ± 0.16 and 0.964 ± 0.084.
The matching figures for `CCOC(=O)c1cnc(C#Cc2ccc3c(c2)C(C)(C)CC[S+]3[O-])nc1` (stereo not given): 1.09 ± 0.14 and 0.9945 ± 0.005.
As for `O=C(C=Cc1ccccc1)NC(NC(=S)Nc1ccc(Cl)cc1)C(Cl)(Cl)Cl` (stereo not given), the cell count by setting is: (compound dose 1 µM) 1.03 ± 0.22; (compound dose 5 µM) 1.16 ± 0.18.
Taken in the same sequence, the figures for `Nc1nc(Cl)nc2c1ncn2[C@H]1C[C@H](O)[C@@H](CO)O1` [Cladribine] were 1.04 ± 0.28 and 1.01 ± 0.25.
For the molecule `COc1cccc2c1C(=O)c1c(O)c3c(c(O)c1C2=O)C[C@@](O)(C(=O)CO)C[C@@H]3O[C@H]1C[C@H](N)[C@H](O)[C@H](C)O1` [Doxorubicin (hydrochloride)], the cell count is, setting by setting: (compound dose 1 µM) 1.1 ± 0.29; (compound dose 5 µM) 0.642 ± 0.1.
